B1: ispE L115W (protein)
chain: MRTQWPSPAKLNLFLYITGQRADGYHTLQTLFQFLDYGDTISIELRDDGDIRLLTPVEGVEHEDNLIVRAARLLMKTAADSGRLPTGSGANISIDKRLPMGGGLGGGSSNAATVWVALNHLWQCGLSMDELAEMGLTLGADVPVFVRGHAAFAEGVGEILTPVDPPEKWYLVAHPGVSIPTPVIFKDPELPRNTPKRSIETLLKCEFSNDCEVIARKRFREVDAVLSWLLEYAPSRLTGTGACVFAEFDTESEARQVLEQAPEWLNGFVAKGANLSPLHRAML
B2: ispE F145P (protein)
chain: B1 chain with W115L, F145P
B3: ispE V156A (protein)
chain: B1 chain with W115L, V156A
B4: ispE L115P (protein)
chain: B1 chain with W115P
B5: ispE V156P (protein)
chain: B1 chain with W115L, V156P
B6: ispE L229Q (protein)
chain: B1 chain with W115L, L229Q
B7: ispE F145Q (protein)
chain: B1 chain with W115L, F145Q
B8: ispE L115Q (protein)
chain: B1 chain with W115Q
B9: ispE V156W (protein)
chain: B1 chain with W115L, V156W
B10: ispE L118Q (protein)
chain: B1 chain with W115L, L118Q
B11: ispE L118A (protein)
chain: B1 chain with W115L, L118A
B12: ispE F145A (protein)
chain: B1 chain with W115L, F145A
B13: ispE V156Q (protein)
chain: B1 chain with W115L, V156Q
B14: ispE L229W (protein)
chain: B1 chain with W115L, L229W
B15: ispE L229A (protein)
chain: B1 chain with W115L, L229A

Positions count from the first letter of the chain named. Names may count otherwise. ± gives the standard deviation of the averaged measurements. Laboratory Escherichia coli strains with one amino-acid change in an essential protein, pooled on minimal glucose agar with carbenicillin or gentamicin at twice the control MIC (plus kanamycin and chloramphenicol for the plasmids), 48 h. Fold change of barcode share against drug-free plates; higher = less susceptible. Active = above 20 in both replicates (the paper's putatively resistant). '<' = one read or none on drug, '>' = one read or none on a drug-free plate. Shares are relative, so most strains fall below 1 when a few take over. Listed are strains with at least 15 reads on both drug-free plates, and hits; most hits rest on fewer reference reads. Replicate rank correlation about 0.5. Edits are read from barcodes.

The target in one data set is Escherichia coli (laboratory strain). The data set can be described thus: barcode share on antibiotic plates over drug-free plates; higher = less susceptible. The following applies: antibiotic: carbenicillin; 2× MIC (3.1 µg/mL). The method, then:
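A pool of E. coli strains, each edited to carry one amino-acid change in an essential protein, was grown for 48 h on minimal glucose agar with or without antibiotic; strain barcodes were sequenced; mean of two replicates.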
Take B1: the “fold change of barcode share” value came to 0.631 ± 0.13.

Consider B2, for which the “fold change of barcode share” value was determined as 0.509 ± 0.12.

As for B3, the “fold change of barcode share” value amounted to 2.19 ± 0.62.

As for B4, the “fold change of barcode share” value stood at 0.2677 ± 0.0015.

As for B5, the “fold change of barcode share” value stood at 0.483 ± 0.14.

For B6, the “fold change of barcode share” value came to 0.583 ± 0.19.

Take B7: the “fold change of barcode share” value amounted to 0.488 ± 0.11.

For the protein B8, the “fold change of barcode share” value came to 0.303 ± 0.0051.

B9: the “fold change of barcode share” value was determined as 0.234 ± 0.013.

Regarding B10, the “fold change of barcode share” value was 0.345 ± 0.15.

On to B11, for which the “fold change of barcode share” value turned out to be 0.306 ± 0.0093.

Turning to B12, the “fold change of barcode share” value was determined as 0.383 ± 0.034.

As to B13, the “fold change of barcode share” value is 0.222 ± 0.074.

With B14, the “fold change of barcode share” value turned out to be 0.518 ± 0.039.

For B15, the “fold change of barcode share” value was found to be 0.382 ± 0.01.

The data set is the same for the next values; noted with them: antibiotic: gentamicin; 2× MIC (MIC 0.45 µg/mL).
Take B1: the “fold change of barcode share” value amounted to 0.0133 ± 0.006.

On to B2, for which the “fold change of barcode share” value turned out to be 7.85 ± 7.8.

B3: the “fold change of barcode share” value turned out to be 0.00906 ± 0.0067.

B4: the “fold change of barcode share” value was 5.85 ± 0.5.

For the protein B6, the “fold change of barcode share” value was below 0.00472.

B7: the “fold change of barcode share” value turned out to be 0.0124 ± 0.011.

Regarding B8, the “fold change of barcode share” value amounted to 0.00664 ± 0.00048.

For B9, the “fold change of barcode share” value worked out at 1.11 ± 1.5.

As to B10, the “fold change of barcode share” value was determined as 17 ± 19.

Take B11: the “fold change of barcode share” value stood at 0.00724 ± 0.0017.

Turning to B12, the “fold change of barcode share” value worked out at 0.00914 ± 0.0032.

Take B13: the “fold change of barcode share” value worked out at 0.00751 ± 0.005.

For B14, the “fold change of barcode share” value worked out at 0.0104 ± 0.0087.

Take B15: the “fold change of barcode share” value was 0.00586 ± 0.0026.

These data come from the supplement of paper PMC11876631.
